# The other results are listed elsewhere or left out.
# Tests used:
# Assay in all cases: glycan array binding signal (z-score within array); higher = stronger binding
# Details in all cases: glycan notation: IUPAC condensed, linker removed
# [1] = molecular target: Neu5Ac(a2-3)Gal(b1-3)GalNAc(b1-3)Gal(b1-4)GlcNAc
# In short: (§1)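 The Consortium for Functional Glycomics database supplied 3228 glycan arrays, of which those lacking an available protein sequence were dropped. The binding signal, a within-array Z-score, was averaged across arrays of the same protein sequence and across linkers. Negative scores can be read as non-binding.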
# [2] = molecular target: Neu5Ac(a2-3)Gal(b1-3)GalNAc(b1-4)Gal(b1-4)Glc
# In short: as §1
# [3] = molecular target: Neu5Ac(a2-3)Gal(b1-3)GalNAc(b1-4)[Neu5Ac(a2-3)]Gal(b1-4)Glc
# In short: as §1
# [4] = molecular target: Neu5Ac(a2-3)Gal(b1-3)GalNAc(b1-4)[Neu5Ac(a2-8)Neu5Ac(a2-3)]Gal(b1-4)Glc
# In short: as §1
# [5] = molecular target: Neu5Ac(a2-3)Gal(b1-3)GalNAc6S
# In short: as §1
# [6] = molecular target: Neu5Ac(a2-3)Gal(b1-3)GalNAc6S(b1-4)Gal(b1-4)Glc
# In short: as §1
# [7] = molecular target: Neu5Ac(a2-3)Gal(b1-3)GlcNAc
# In short: as §1
# [8] = molecular target: Neu5Ac(a2-3)Gal(b1-3)GlcNAc(b1-2)Man
# In short: as §1
# [9] = molecular target: Neu5Ac(a2-3)Gal(b1-3)GlcNAc(b1-2)Man(a1-3)[GlcNAc(b1-4)][Neu5Ac(a2-3)Gal(b1-3)GlcNAc(b1-2)Man(a1-6)]Man(b1-4)GlcNAc(b1-4)GlcNAc
# In short: as §1
# [10] = molecular target: Neu5Ac(a2-3)Gal(b1-3)GlcNAc(b1-2)Man(a1-3)[Neu5Ac(a2-3)Gal(b1-3)GlcNAc(b1-2)Man(a1-6)]Man(b1-4)GlcNAc(b1-4)GlcNAc
# In short: as §1
# [11] = molecular target: Neu5Ac(a2-3)Gal(b1-3)GlcNAc(b1-3)Gal(b1-3)GlcNAc
# In short: as §1
# [12] = molecular target: Neu5Ac(a2-3)Gal(b1-3)GlcNAc(b1-3)Gal(b1-4)Glc
# In short: as §1
# [13] = molecular target: Neu5Ac(a2-3)Gal(b1-3)GlcNAc(b1-3)Gal(b1-4)GlcNAc
# In short: as §1
# [14] = molecular target: Neu5Ac(a2-3)Gal(b1-3)GlcNAc(b1-3)GalNAc
# In short: as §1
# [15] = molecular target: Neu5Ac(a2-3)Gal(b1-3)GlcNAc(b1-3)[Fuc(a1-3)[Gal(b1-4)]GlcNAc(b1-6)]Gal(b1-4)Glc
# In short: as §1
# [16] = molecular target: Neu5Ac(a2-3)Gal(b1-3)GlcNAc(b1-4)Gal(b1-4)Glc
# In short: as §1
# [17] = molecular target: Neu5Ac(a2-3)Gal(b1-3)GlcNAc(b1-6)GalNAc
# In short: as §1
# [18] = molecular target: Neu5Ac(a2-3)Gal(b1-3)GlcNAc6S
# In short: as §1
# [19] = molecular target: Neu5Ac(a2-3)Gal(b1-3)[Fuc(a1-3)]GlcN(b1-3)Gal(b1-4)Glc
# In short: as §1
# [20] = molecular target: Neu5Ac(a2-3)Gal(b1-3)[Fuc(a1-4)]GlcNAc
# In short: as §1
# [21] = molecular target: Neu5Ac(a2-3)Gal(b1-3)[Fuc(a1-4)]GlcNAc(b1-3)Gal(b1-3)[Fuc(a1-4)]GlcNAc
# In short: as §1
# [22] = molecular target: Neu5Ac(a2-3)Gal(b1-3)[Fuc(a1-4)]GlcNAc(b1-3)Gal(b1-4)Glc
# In short: as §1
# [23] = molecular target: Neu5Ac(a2-3)Gal(b1-3)[Fuc(a1-4)]GlcNAc(b1-3)Gal(b1-4)[Fuc(a1-3)]GlcNAc
# In short: as §1
# [24] = molecular target: Neu5Ac(a2-3)Gal(b1-3)[GlcNAc(b1-6)]GalNAc
# In short: as §1
# [25] = molecular target: Neu5Ac(a2-3)Gal(b1-3)[Neu5Ac(a2-3)Gal(b1-4)]GlcNAc
# In short: as §1
# [26] = molecular target: Neu5Ac(a2-3)Gal(b1-3)[Neu5Ac(a2-6)]GalNAc
# In short: as §1
# [27] = molecular target: Neu5Ac(a2-3)Gal(b1-3)[Neu5Ac(a2-6)]GalNAc(b1-4)Gal(b1-4)Glc
# In short: as §1
# [28] = molecular target: Neu5Ac(a2-3)Gal(b1-3)[Neu5Ac(a2-6)]GlcNAc(b1-3)Gal(b1-4)Glc
# In short: as §1
# [29] = molecular target: Neu5Ac(a2-3)Gal(b1-3)[Neu5Ac(a2-6)]GlcNAc(b1-3)[Fuc(a1-3)[Gal(b1-4)]GlcNAc(b1-6)]Gal(b1-4)Glc
# In short: as §1
# [30] = molecular target: Neu5Ac(a2-3)Gal(b1-3)]Neu5Ac(a2-3)Gal(b1-4)]GlcNAc
# In short: as §1
# Neu5Ac(a2-3)Gal(b1-4)Glc = molecular target: Neu5Ac(a2-3)Gal(b1-4)Glc
# In short: as §1
# [31] = molecular target: Neu5Ac(a2-3)Gal(b1-4)GlcNAc
# In short: as §1
# [32] = molecular target: Neu5Ac(a2-3)Gal(b1-4)GlcNAc(b1-2)Man
# In short: as §1
# [33] = molecular target: Neu5Ac(a2-3)Gal(b1-4)GlcNAc(b1-2)Man(a1-3)[GlcNAc(b1-2)Man(b1-4)GlcNAc(b1-2)Man(a1-6)]Man(b1-4)GlcNAc(b1-4)GlcNAc
# In short: as §1
# [34] = molecular target: Neu5Ac(a2-3)Gal(b1-4)GlcNAc(b1-2)Man(a1-3)[GlcNAc(b1-4)][Neu5Ac(a2-3)Gal(b1-4)GlcNAc(b1-2)Man(a1-6)]Man(b1-4)GlcNAc(b1-4)GlcNAc
# In short: as §1
# [35] = molecular target: Neu5Ac(a2-3)Gal(b1-4)GlcNAc(b1-2)Man(a1-3)[Neu5Ac(a2-3)Gal(b1-4)GlcNAc(b1-2)Man(a1-6)]Man(b1-4)GlcNAc(b1-4)GlcNAc
# In short: as §1
# [36] = molecular target: Neu5Ac(a2-3)Gal(b1-4)GlcNAc(b1-2)Man(a1-3)[Neu5Ac(a2-3)Gal(b1-4)GlcNAc(b1-2)Man(a1-6)]Man(b1-4)GlcNAc(b1-4)[Fuc(a1-6)]GlcNAc
# In short: as §1
# [37] = molecular target: Neu5Ac(a2-3)Gal(b1-4)GlcNAc(b1-2)Man(a1-3)[Neu5Ac(a2-6)Gal(b1-4)GlcNAc(b1-2)Man(a1-6)]Man(b1-4)GlcNAc(b1-4)GlcNAc
# In short: as §1
# [38] = molecular target: Neu5Ac(a2-3)Gal(b1-4)GlcNAc(b1-2)[Neu5Ac(a2-3)Gal(b1-4)GlcNAc(b1-4)]Man(a1-3)[GlcNAc(b1-4)][Neu5Ac(a2-3)Gal(b1-4)GlcNAc(b1-2)[Neu5Ac(a2-3)Gal(b1-4)GlcNAc(b1-6)]Man(a1-6)]Man(b1-4)GlcNAc(b1-4)GlcNAc
# In short: as §1
# [39] = molecular target: Neu5Ac(a2-3)Gal(b1-4)GlcNAc(b1-2)[Neu5Ac(a2-3)Gal(b1-4)GlcNAc(b1-4)]Man(a1-3)[GlcNAc(b1-4)][Neu5Ac(a2-3)Gal(b1-4)GlcNAc(b1-4)Man(a1-6)]Man(b1-4)GlcNAc(b1-4)GlcNAc
# In short: as §1
# [40] = molecular target: Neu5Ac(a2-3)Gal(b1-4)GlcNAc(b1-2)[Neu5Ac(a2-3)Gal(b1-4)GlcNAc(b1-6)]Man(a1-6)[Neu5Ac(a2-3)Gal(b1-4)GlcNAc(b1-2)Man(a1-3)]Man(b1-4)GlcNAc(b1-4)GlcNAc
# In short: as §1
# [41] = molecular target: Neu5Ac(a2-3)Gal(b1-4)GlcNAc(b1-2)[Neu5Ac(a2-3)Gal(b1-4)GlcNAc(b1-6)]Man(a1-6)[Neu5Ac(a2-3)Gal(b1-4)GlcNAc(b1-2)Man(a1-3)][GlcNAc(b1-4)]Man(b1-4)GlcNAc(b1-4)GlcNAc
# In short: as §1
# [42] = molecular target: Neu5Ac(a2-3)Gal(b1-4)GlcNAc(b1-3)Gal
# In short: as §1
# [43] = molecular target: Neu5Ac(a2-3)Gal(b1-4)GlcNAc(b1-3)Gal(b1-3)GlcNAc
# In short: as §1
# [44] = molecular target: Neu5Ac(a2-3)Gal(b1-4)GlcNAc(b1-3)Gal(b1-4)Glc
# In short: as §1
binder,measurement,setting,value
"CLEC5A (Homo sapiens), Q9NY25 (protein) MNWHMIISGLIVVVLKVVGMTLFLLYFPQIFNKSNDGFTTTRSYGTVSQIFGSSSPSPNGFITTRSYGTVCPKDWEFYQARCFFLSTSESSWNESRDFCKGKGSTLAIVNTPEKLKFLQDITDAEKYFIGLIYHREEKRWRWINNSVFNGNVTNQNQNFNCATIGLTKTFDAASCDISYRRICEKNAK",glycan array binding signal (z-score),[1],-0.262
same,glycan array binding signal (z-score),[2],-0.32
same,glycan array binding signal (z-score),[3],-0.297
same,glycan array binding signal (z-score),[4],0.362
same,glycan array binding signal (z-score),[5],-0.212
same,glycan array binding signal (z-score),[6],-0.32
same,glycan array binding signal (z-score),[7],-0.254
same,glycan array binding signal (z-score),[8],-0.241
same,glycan array binding signal (z-score),[9],-0.199
same,glycan array binding signal (z-score),[10],-0.428
same,glycan array binding signal (z-score),[11],-0.098
same,glycan array binding signal (z-score),[12],-0.175
same,glycan array binding signal (z-score),[13],0.002
same,glycan array binding signal (z-score),[14],-0.151
same,glycan array binding signal (z-score),[15],-0.32
same,glycan array binding signal (z-score),[16],-0.012
same,glycan array binding signal (z-score),[17],-0.188
same,glycan array binding signal (z-score),[18],0.026
same,glycan array binding signal (z-score),[19],-0.224
same,glycan array binding signal (z-score),[20],-0.242
same,glycan array binding signal (z-score),[21],-0.257
same,glycan array binding signal (z-score),[22],-0.224
same,glycan array binding signal (z-score),[23],0.08
same,glycan array binding signal (z-score),[24],-0.229
same,glycan array binding signal (z-score),[25],-0.111
same,glycan array binding signal (z-score),[26],-0.013
same,glycan array binding signal (z-score),[27],-0.32
same,glycan array binding signal (z-score),[28],0.258
same,glycan array binding signal (z-score),[29],-0.258
same,glycan array binding signal (z-score),[30],-0.189
same,glycan array binding signal (z-score),Neu5Ac(a2-3)Gal(b1-4)Glc,-0.141
same,glycan array binding signal (z-score),[31],-0.233
same,glycan array binding signal (z-score),[32],0.058
same,glycan array binding signal (z-score),[33],-0.008
same,glycan array binding signal (z-score),[34],-0.191
same,glycan array binding signal (z-score),[35],0.065
same,glycan array binding signal (z-score),[36],-0.192
same,glycan array binding signal (z-score),[37],0.127
same,glycan array binding signal (z-score),[38],0.064
same,glycan array binding signal (z-score),[39],-0.034
same,glycan array binding signal (z-score),[40],0.192
same,glycan array binding signal (z-score),[41],-0.191
same,glycan array binding signal (z-score),[42],-0.199
same,glycan array binding signal (z-score),[43],-0.158
same,glycan array binding signal (z-score),[44],-0.32

# — the supplement of paper PMC8728848
